# Experimental data reported in publication PMC6212790.
# Some of the results follow. At the low end of the ranking, values are background and their order means little.
# Target: T1, GST-Rok (full length) (UniProt O34857)
# T1 sequence: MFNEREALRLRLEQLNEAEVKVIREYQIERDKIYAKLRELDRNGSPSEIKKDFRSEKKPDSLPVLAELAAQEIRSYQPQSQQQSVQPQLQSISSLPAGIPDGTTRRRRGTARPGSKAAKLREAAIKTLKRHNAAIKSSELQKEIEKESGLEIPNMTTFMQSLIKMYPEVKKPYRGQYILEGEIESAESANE
# Assay: protein binding microarray;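 further: rank score from −0.5 (least bound) to 0.5 (best bound)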
# Conditions: Rok is a gene silencer of Bacillus subtilis; high values mean tight binding; most listed sequences are background and not binding sites; double strand, one strand shown
row,Sequence,binding signal
1,AATCCGGT,0.0671 E-score
2,AAAGAGCC,-0.175 E-score
3,AAGAAATT,0.132 E-score
4,GCTCCCAC,-0.193 E-score
5,CAAGAGCA,-0.197 E-score
6,CGACCCGA,-0.288 E-score
7,AGTTGCAG,-0.11 E-score
8,ATCCCCAT,-0.218 E-score
9,CCCGCAGG,-0.431 E-score
10,CCCCCGGC,-0.361 E-score
11,GTAAGAAC,-0.0248 E-score
12,GTCTCCGA,-0.145 E-score
13,ACTAGGCT,-0.0445 E-score
14,CCCCGCAC,-0.33 E-score
15,CTAGTGAA,0.0833 E-score
16,CCGCATCG,-0.243 E-score
17,AGGTCCAT,-0.0265 E-score
18,CGCTGATC,-0.206 E-score
19,AGCGAGGC,-0.194 E-score
20,AGATTTAA,0.183 E-score
21,CCGCATAA,-0.0394 E-score
22,TGAGAGCA,-0.194 E-score
23,ACTACTGG,0.224 E-score
24,CACTGGAA,-0.0294 E-score
25,CCACTATA,0.162 E-score

row,Sequence,binding signal
1,CGGGGGTA,-0.326 E-score
2,GCTGGCGA,-0.138 E-score
3,ATATAGCG,0.349 E-score
4,ATATTATA,0.425 E-score
5,ACGAGACA,0.173 E-score
6,GTCGACTA,0.233 E-score
7,ACGTCAGA,-0.0925 E-score
8,AGCATCGC,-0.235 E-score
9,AGGAGTTA,0.0221 E-score
10,CAGGTAGC,0.1 E-score
11,GAAACGAA,-0.0434 E-score
12,ACGCCGCC,-0.272 E-score
13,GAGGAGCC,-0.402 E-score
14,GACAAGTC,-0.207 E-score
15,CCTAATCC,0.0472 E-score
16,AAACTGTT,0.0239 E-score
17,GCGTAGAC,-0.196 E-score
18,AAACGCAT,-0.0892 E-score
19,AAACGGGG,-0.163 E-score
20,CCGATTCA,0.0266 E-score
21,CTCCTAAA,-0.089 E-score
22,CCACATCC,-0.0738 E-score
23,GATGCTGA,-0.195 E-score
24,ACCTTTCC,-0.149 E-score
25,CAGGAATA,-0.0271 E-score

row,Sequence,binding signal
1,AACGTTAC,-0.0148 E-score
2,ACTTTGAC,-0.0452 E-score
3,CTGATTCC,-0.0756 E-score
4,ACCGGTCA,0.047 E-score
5,GAATCGCC,-0.0242 E-score
6,ACAATACA,0.0994 E-score
7,GTCTTAAA,-0.0475 E-score
8,CGGAGCGC,-0.158 E-score
9,AGGGCCGG,-0.344 E-score
10,TCATATGA,0.125 E-score
11,CGATTACG,-0.158 E-score
12,GAAACTCA,-0.01 E-score
13,AAAAATGG,0.012 E-score
14,AAAGTCTC,0.0185 E-score
15,GGAGGACC,-0.28 E-score
16,CAACGGTC,-0.298 E-score
17,ATTTCTCG,0.153 E-score
18,CTCGTATC,-0.104 E-score
19,GATCTAAA,-0.0495 E-score
20,CCCTCTTC,-0.325 E-score
21,GATGTCAA,0.033 E-score
22,ATAGTCCC,-0.245 E-score
23,GCCTATCC,-0.285 E-score
24,GAAGTTAA,0.277 E-score
25,CACAACGG,-0.183 E-score

row,Sequence,binding signal
1,ACTCAAAG,-0.233 E-score
2,CAAACGTA,0.125 E-score
3,AGCCTCAT,-0.263 E-score
4,ATTGGCTG,-0.134 E-score
5,AACTCTAA,0.0673 E-score
6,CGTTACAC,-0.039 E-score
7,CGCGACCA,-0.0832 E-score
8,GAGTTGCA,0.0118 E-score
9,ATAACCGC,-0.00309 E-score
10,CAATCAAA,0.0994 E-score
11,GTCAAGTA,0.239 E-score
12,GCAATCGC,-0.0987 E-score
13,ACTCTATA,0.126 E-score
14,ACTCAATG,0.215 E-score
15,CTTCGCCA,-0.129 E-score
16,TGCTAACA,0.0651 E-score
17,TACGTGCA,0.108 E-score
18,ATACCAAA,0.189 E-score
19,AATGAATG,-0.0226 E-score
20,AACGAACA,0.136 E-score
21,ATTATATG,0.269 E-score
22,ATAACGTG,0.084 E-score
23,AGTTGTTG,0.155 E-score
24,GGGACCAC,-0.293 E-score
25,CCCCGTGA,-0.334 E-score

row,Sequence,binding signal
1,ATGTGCTG,-0.127 E-score
2,CACGAGGG,-0.36 E-score
3,AACGTAAC,0.0801 E-score
4,AAATTAGG,0.148 E-score
5,ATCGTACC,-0.00745 E-score
6,AAGAGTGA,0.0519 E-score
7,CATCGGCG,-0.00694 E-score
8,CACTGCGC,-0.221 E-score
9,CGGGCGAA,-0.268 E-score
10,GGAATGTA,0.103 E-score
11,GGAAGGCA,-0.325 E-score
12,ACATCTCT,-0.12 E-score
13,AACGTGGG,-0.169 E-score
14,CAACAGTA,0.316 E-score
15,GGTCGGCA,-0.225 E-score
16,ATCAGGTA,0.0696 E-score
17,CAGGAACC,-0.0635 E-score
18,AATTCCCT,0.0143 E-score
19,ATTTTGTG,0.208 E-score
20,GATCGGGA,-0.0834 E-score
21,CCGGGCCC,-0.409 E-score
22,CGCGGGCC,-0.275 E-score
23,CTGATTCA,-0.025 E-score
24,AATCCTAT,0.192 E-score
25,AGGCAGAA,-0.157 E-score

row,Sequence,binding signal
1,ACCGTGCT,-0.016 E-score
2,ACTGCCTA,0.0132 E-score
3,TCCTGCCA,-0.0317 E-score
4,CCATCTGA,-0.0252 E-score
5,CCGCAAGC,-0.337 E-score
6,AGGCAACG,-0.102 E-score
7,GTTTTCCA,-0.128 E-score
8,GCGCGGCC,-0.375 E-score
9,GAGGTGTA,0.203 E-score
10,GGTGTGAC,-0.26 E-score
11,ACAGAGCC,-0.122 E-score
12,GAACCACA,-0.128 E-score
13,CACCGCAA,-0.109 E-score
14,CAAAGATC,0.0833 E-score
15,AATGGAGA,0.163 E-score
16,ACGTATGA,0.0263 E-score
17,CCCACACA,-0.116 E-score
18,TAGGCGAA,0.0111 E-score
19,ATAAGCAA,0.132 E-score
20,GTCCTTCA,-0.095 E-score
21,CTAAGGAA,0.0227 E-score
22,TAAACCCA,0.00789 E-score
23,CACCCTTC,-0.324 E-score
24,ACCTCGCG,-0.188 E-score
25,CTAATCGC,0.18 E-score

row,Sequence,binding signal
1,CAATGAAA,-0.13 E-score
2,AGAGGGCC,-0.435 E-score
3,GCTGGGAA,-0.265 E-score
4,AATACTTC,0.235 E-score
5,CCTAGGAG,-0.131 E-score
6,AAGCCGTG,-0.213 E-score
7,ACAATACG,0.0216 E-score
8,CCATTCAA,-0.121 E-score
9,ATCATTCG,0.0238 E-score
10,AATATGAC,0.147 E-score
11,AAAAAAAG,-0.111 E-score
12,GCTCAGCC,-0.0544 E-score
13,ACGTACTA,0.287 E-score
14,CTCTGGAC,-0.187 E-score
15,AGCCGCCG,-0.276 E-score
16,GAATAGAC,-0.0551 E-score
17,CGTAATAA,0.27 E-score
18,CCTTTACG,-0.19 E-score
19,GTCATTTA,0.171 E-score
20,ACGAGGCT,-0.202 E-score
21,TCGGCCAA,-0.13 E-score
22,CATCGATA,0.283 E-score
23,GACGCGCC,-0.252 E-score
24,GGACCACC,-0.443 E-score
25,GCCCAGCC,-0.392 E-score

row,Sequence,binding signal
1,CCAGAACA,-0.0297 E-score
2,GAGTGAGC,-0.0409 E-score
3,GTTTAGTA,0.272 E-score
4,CCGCGTTC,-0.185 E-score
5,GATTGTTA,0.233 E-score
6,AAATATGG,0.261 E-score
7,AAGCAATG,-0.0894 E-score
8,CGTCCGGC,-0.137 E-score
9,GAATCTGA,-0.103 E-score
10,AATGTTTC,0.0499 E-score
11,AAGCGCGG,-0.113 E-score
12,CAAGCGGA,0.0458 E-score
13,AGGCCTCG,-0.277 E-score
14,AGCTCCAA,-0.151 E-score
15,CCCGTTAC,-0.0164 E-score
16,CCGTGGCC,-0.268 E-score
17,GGTATCAC,0.196 E-score
18,GCTTCTCC,-0.142 E-score
19,GTCGTAGA,0.0479 E-score
20,CGTTTCCC,-0.185 E-score
21,TCTGAAGA,-0.0674 E-score
22,GAACCATC,0.0458 E-score
23,ATGATGTG,0.157 E-score
24,ATGAATGG,-0.0647 E-score
25,CTATATAA,0.345 E-score

row,Sequence,binding signal
1,CACCCAAA,-0.0657 E-score
2,ACATAGCC,-0.113 E-score
3,TCCCAGAA,-0.15 E-score
4,AGACAAAA,-0.0398 E-score
5,GCGCATAC,0.0802 E-score
6,CCTCTACG,-0.202 E-score
7,CCCAACTC,-0.0204 E-score
8,AAGTCCAT,0.162 E-score
9,CAGGTTAA,0.13 E-score
10,ATTATAAG,0.141 E-score
11,CAAATACC,0.126 E-score
12,ACAGACAG,0.106 E-score
13,TACGGCCA,-0.2 E-score
14,AAAAAAAC,0.185 E-score
15,ATAGCCTC,-0.165 E-score
16,AAGTTACC,0.172 E-score
17,CCAGTCGA,-0.264 E-score
18,AAAGTTCA,0.137 E-score
19,TTGCGAAA,0.0532 E-score
